Source: PubChem BioAssay AID662 (National Center for Advancing Translational Sciences (NCATS), 2007)
About 1,800 (2.5%) of roughly 71,000 compounds were called active. This list was built around the results that the source calls inconclusive (neither active nor inactive); the mix of calls is not that of the screen. The call rests on the fitted dose curve; in most records, active means well fitted activation curve with a large enough effect in the signal ratio, with a control signal flat (not every such curve was filed as active); inconclusive means small, poorly fitted or top-dose-only effect, or effect the other way, or a change in a side signal; inactive means flat fitted curve, though single readings scatter; the % refers to the signal ratio. Potencies of inconclusive entries are doubtful fits and often do not repeat.

assay: Cell signaling CRE-BLA (Fsk stim); conditions: CHO CRE-bla reporter (cAMP response element driving beta-lactamase), forskolin EC10, beta-lactamase ratio; activity change, negative = inhibition: at 38.2 µM (top of the series) unless noted; on activity change, negative = inhibition: % of control where 0% means no effect
Outline: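 Using CellSensor CRE-bla CHO cells in Opti-MEM with 0.5% dialyzed FBS, compounds were titrated with EC10 NKH 477 for 3 h at 37 °C. CCF4 ratio (460/530 nm) gave %Activity; AC50 derived.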
Potency means the concentration at half of the fitted maximal effect; tags describe the fitted curve by direction and shape.

Structure (SMILES) | Potency | activity change, negative = inhibition
CCCc1[nH]nc2c1C(CCc1ccccc1)C(C#N)=C(N)O2 (stereo not given) | inconclusive: 2.51 µM [rising, full curve] | 
O=C(COC(=O)CSc1nnc(-c2ccc(Cl)cc2)o1)NCc1ccc2c(c1)OCO2 |  | inactive: -9.08%
O=C(Nc1nc2ccccc2s1)C1CCCN1S(=O)(=O)c1ccc(Cl)cc1 (stereo not given) |  | inconclusive: -21.3%
COc1cc2c(cc1NC(C)=O)CCCC2 |  | inconclusive: 8.56% [at 7.6 µM]
CCCOC(=O)c1ccc(OCC(O)Cn2c(C)nc3ccccc32)cc1 (stereo not given) |  | inactive: -13.3%
Cc1ccc(Cn2nnc3c(=O)n(CC(=O)NCc4ccco4)cnc32)cc1 |  | inconclusive: -18%
COc1cc(C2SCCCCCCCCCCSC(c3ccc(O)c(OC)c3)SCCCCCCCCCCS2)ccc1O (stereo not given) |  | inactive: 4.72% [at 7.6 µM]
Cn1c(=S)[nH]c2cccnc21 |  | inconclusive: 21%
CCC(C)C(=O)Nc1nnc(-c2cccs2)s1 (stereo not given) |  | inactive: 3.46%
COc1ccccc1N1CCN(C(=O)c2cnn3cccnc23)CC1 |  | inactive: -7.68%
CC(C)OC(=O)CN1CCN(C2c3ccccc3-c3ccccc32)CC1 |  | inconclusive: 19.4%
CCN1CCN(c2nc(C)nc3c2sc(=S)n3C)CC1 |  | inactive: 21.1%
O=C(CCc1ccc(CCC(=O)c2cccs2)s1)c1cccs1 |  | inconclusive: 20%
Cc1c(C#N)c2ncnc(N)c2n1-c1ccccc1 | inconclusive: 15.8 µM [rising, partial curve] | 
COc1nc(N2CCOCC2)nc(-n2cccc2)n1 | inconclusive: 10 µM [rising, partial curve] | 
CC1CCCC(NC(=O)CSc2nnnn2C)C1C (stereo not given) | inconclusive: 5.01 µM [rising, single point] | 
CCCCNC(=O)c1ccc2c(c1)N(CC)C(=O)c1ccccc1S2(=O)=O |  | inactive: -2.17%
c1ccc2oc(SCc3cn4ccccc4n3)nc2c1 | inconclusive: 10 µM [rising, single point] | 
CC1CCN(C(=O)Cn2c(=O)n(Cc3ccc4c(c3)OCO4)c(=O)c3ccccc32)CC1 |  | inconclusive: 10.7%
Cc1ccc(S(=O)(=O)NC2OC(=O)C(Cl)=C2Cl)cc1 (stereo not given) |  | inconclusive: -22.9%
Cc1c(Br)cc(C(=O)NCCCN2CCOCC2)c(C)c1C |  | inconclusive: -15.3% [at 7.6 µM]
CCN(Cc1ccncc1)S(=O)(=O)c1ccc(C(C)=O)cc1 |  | inactive: -3.23%
COc1ccc(OC)c2c(C)cc(N3CCN(C(=O)c4ccc(F)cc4)CC3)nc12 |  | inactive: 4.61%
CCCNC(=O)NC1C(NC(=O)NCCC)N(C)C(=O)N1C (stereo not given) |  | inconclusive: 11%
C/C(N)=C(/C#N)C(=O)CSc1nnc(Nc2cccc(C)c2)s1 | inconclusive: 0.126 µM [falling, single point] | 
O=C(CSc1nnc(-c2ccccn2)n1Cc1ccco1)c1ccc(-c2ccccc2)cc1 |  | inconclusive: -27.1%
C=CCc1c(C)nc(SCC(=C)C)[nH]c1=O |  | inconclusive: 24.8% [at 7.6 µM]
C[C@H](OP(=O)(O)O)[C@H](N)C(=O)O |  | inactive: -4.66% [at 7.6 µM]

Structure (SMILES) | Potency | activity change, negative = inhibition
Cc1ccc(SCCC(=O)N(C)C)cc1 |  | inconclusive: 6.74%
Cc1ccc2[nH]c(=O)c(CNC(C)C)cc2c1 |  | inactive: -4.18%
COC(=O)C1CCN(C(c2cc(OC)c(OC)c(OC)c2)c2sc3nc(C)nn3c2O)CC1 (stereo not given) | active: 12.6 µM | 
N#CCCn1c(=O)c(-c2cccs2)nc2cnc(N3CCNCC3)nc21 | inconclusive: 2.51 µM [rising, full curve] | 
O=C(NCC1CCCO1)C1CCCCN1S(=O)(=O)c1ccc(F)cc1 (stereo not given) |  | inactive: -23.1%
CC(C)=CCl |  | inactive: -11.4%
O=C(c1ccc2c(c1)OCO2)N1CCCCC1 |  | inconclusive: 2.77%
CCOC(=O)N1CC=C2C(C#N)=C(N)C(C#N)(C#N)[C@H](c3ccc(OC(C)C)c(OCC)c3)[C@H]2C1 | inconclusive: 12.6 µM [rising, partial curve] | 
COc1ccc(S(=O)(=O)Cc2ccc(C(=O)N3CCN(c4ccc(Cl)cc4)CC3)o2)cc1 |  | inconclusive: -13.6%
COc1ccc(C2C(C(=O)N3CCN(C)CC3)c3ccccc3C(=O)N2C2CCCCC2)cc1 (stereo not given) |  | inconclusive: -14.4%
COc1ccc(NC(=O)c2cc(Cl)ccc2NC(=O)c2ccco2)c(OC)c1 |  | inactive: 21.4%
COc1ccc2[nH]c(=O)c(CN(C)C(=O)C3CCCCC3)cc2c1 |  | inactive: 23.2%
O=C(Nc1nc(-c2cccs2)cs1)c1ccc(S(=O)(=O)N2CCCC2)cc1 |  | inconclusive: -5.18%
CCOC(=O)c1cccc(N2C(=O)c3ccccc3S2(=O)=O)c1 |  | inconclusive: 17.3%
Cc1ccccc1Nc1ncnc2c1cnn2-c1ccccc1 |  | inconclusive: 10.4%
COc1ccc(C(=O)Nc2ccccc2C(=O)NC(C(=O)NCc2ccco2)C(C)C)cc1 (stereo not given) |  | inactive: 1.87%
O=C(NCc1cccnc1)c1cnn2ccccc12 |  | inactive: 3.55%
COc1ccc(Br)cc1S(=O)(=O)N1CCOCC1 |  | inconclusive: -4.02%
COc1ccccc1N1CCN(Cc2nc(N)nc(Nc3ccccc3)n2)CC1 |  | inactive: -9.17%
O=c1c2cn[nH]c2nc(SCc2ccc3c(c2)OCCO3)n1-c1ccccc1 | inconclusive: 10 µM [rising, partial curve] | 
COc1cc(C2NC(=O)NC(c3ccccc3)=C2C(C)=O)ccc1OCC(=O)O (stereo not given) | active: 12.6 µM | 
Cc1ccc(CNC(=O)C2c3ccccc3C(=O)N(C)C2c2c[nH]c3ccccc23)o1 (stereo not given) |  | inconclusive: -7.91%
Cc1ccc(-c2nnc(N3CCCCC3)c3ccccc23)cc1S(=O)(=O)N1CCN(C)CC1 | inconclusive: 6.31 µM [rising, partial curve] | 
CCOC(=O)c1ccc(N2C(=O)CC(N3CCC(O)(c4ccc(Cl)cc4)CC3)C2=O)cc1 (stereo not given) | inconclusive: 0.398 µM [rising, partial curve, poor fit] | 
CCOCCCNC(=O)C1CCN(S(=O)(=O)N2CC(C)CC(C)C2)CC1 (stereo not given) |  | inconclusive: -31.4%
CN1CCN(C(=O)C2CCN(S(=O)(=O)c3ccc4c(c3)oc(=O)n4C)CC2)CC1 |  | inactive: 0.089%
CC(=O)CC1(C)OC(N)=C(C#N)C1(C#N)C#N (stereo not given) |  | inconclusive: -22.5%
